Reference: the supplement of paper PMC3334620
In all, about 33,000 sequences were measured (“E-score (-0.5 to 0.5)”: median about -0.053, highest 2% from about 0.37 on). The list shows a part of the results.

target: Hap1 (UniProt P0CE41); assay: PBM E-score (8-mer binding enrichment) (E-score (-0.5 to 0.5)); higher = stronger / more preferred TF binding; most listed sequences are background and not binding sites; details: protein concentration: 200 nM; construct: GST-DNA-binding domain
In short: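 E-scores (a modified Wilcoxon-Mann-Whitney statistic) were assigned by the Universal PBM Analysis Suite to every ungapped eight-base word pooled with its reverse complement. The input came from universal all-10-mer Agilent arrays made double-stranded by primer extension and probed with GST-tagged yeast transcription factors at about 100-200 nM. Fluorescent anti-GST detected bound protein, and masliner normalised the scans.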

UniProt P0CE41, sequence (P0CE41 whole entry, the tested form may be a part): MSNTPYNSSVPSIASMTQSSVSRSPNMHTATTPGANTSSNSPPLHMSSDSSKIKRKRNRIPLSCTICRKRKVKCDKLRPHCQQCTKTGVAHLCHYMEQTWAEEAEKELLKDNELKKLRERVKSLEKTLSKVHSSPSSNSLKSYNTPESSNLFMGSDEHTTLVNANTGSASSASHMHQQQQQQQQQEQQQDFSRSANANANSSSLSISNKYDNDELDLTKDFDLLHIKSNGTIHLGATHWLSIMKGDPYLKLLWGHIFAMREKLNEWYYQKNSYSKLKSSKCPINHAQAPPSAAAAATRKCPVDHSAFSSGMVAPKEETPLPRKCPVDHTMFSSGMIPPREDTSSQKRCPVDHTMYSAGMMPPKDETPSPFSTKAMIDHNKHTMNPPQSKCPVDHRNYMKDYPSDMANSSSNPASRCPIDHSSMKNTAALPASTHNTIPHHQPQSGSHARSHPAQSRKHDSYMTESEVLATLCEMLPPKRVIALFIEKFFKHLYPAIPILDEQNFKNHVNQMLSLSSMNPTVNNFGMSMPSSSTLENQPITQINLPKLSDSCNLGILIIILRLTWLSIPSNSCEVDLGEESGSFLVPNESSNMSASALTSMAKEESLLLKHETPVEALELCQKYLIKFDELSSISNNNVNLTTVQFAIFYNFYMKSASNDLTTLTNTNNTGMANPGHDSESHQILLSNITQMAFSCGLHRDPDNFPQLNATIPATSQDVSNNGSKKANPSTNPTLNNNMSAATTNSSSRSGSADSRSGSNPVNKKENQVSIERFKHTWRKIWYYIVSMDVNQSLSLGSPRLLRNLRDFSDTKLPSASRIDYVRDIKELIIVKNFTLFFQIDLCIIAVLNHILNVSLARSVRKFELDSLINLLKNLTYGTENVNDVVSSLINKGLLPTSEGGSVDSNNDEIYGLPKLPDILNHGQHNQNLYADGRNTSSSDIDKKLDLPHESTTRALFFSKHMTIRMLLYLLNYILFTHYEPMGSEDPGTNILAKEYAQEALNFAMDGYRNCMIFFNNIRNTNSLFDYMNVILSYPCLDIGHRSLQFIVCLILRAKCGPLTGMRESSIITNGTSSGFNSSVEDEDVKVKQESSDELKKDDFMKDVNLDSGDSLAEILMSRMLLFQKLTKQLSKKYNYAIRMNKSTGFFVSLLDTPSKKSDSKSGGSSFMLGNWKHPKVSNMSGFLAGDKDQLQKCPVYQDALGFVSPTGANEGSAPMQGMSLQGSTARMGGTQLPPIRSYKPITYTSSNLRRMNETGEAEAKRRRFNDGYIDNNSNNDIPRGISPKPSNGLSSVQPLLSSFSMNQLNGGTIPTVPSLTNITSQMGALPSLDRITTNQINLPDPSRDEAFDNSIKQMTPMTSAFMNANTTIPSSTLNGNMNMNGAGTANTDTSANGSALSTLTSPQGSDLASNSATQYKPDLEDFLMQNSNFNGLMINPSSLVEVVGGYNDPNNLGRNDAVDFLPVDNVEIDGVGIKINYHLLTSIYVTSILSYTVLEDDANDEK

Sequence | PBM E-score
TAACAACA | -0.0513
CTTGTTGC | -0.107
ATTAGCCG | 0.154
CTCAAGAG | -0.275
AGCTCTAA | -0.0231
AGCATGCA | -0.236
AGACACCT | -0.0515
CACTAATA | -0.0188
CCTTACCG | 0.232
ATATTGTA | -0.163
ATGTAGAC | -0.198
ATAGTTAG | 0.0318
GTATTGTA | 0.0635
TAGGATGA | 0.00251
ATAGTACG | 0.0477
ATTGGACA | -0.0833
CAATGATC | -0.152
AAGCCAAG | -0.0638
CATCGATG | -0.174
CACACGGA | 0.239
GGGCTACC | -0.174
CTGCGACA | 0.14
AGATTAAC | -0.0886
ATACCAGG | -0.133
CCACGGGC | 0.0914

Sequence | PBM E-score
ACGCAGAA | -0.0372
ACAATTGA | -0.193
GTTTAAGA | 0.098
ACCGCAGC | 0.0993
CTCTCAGC | -0.316
AGTTTGAA | 0.0865
CCCGCTCG | 0.127
CCAGGATC | -0.0644
ATCACTCG | -0.192
AGCTGCAG | -0.0155
GTTTTAGA | 0.00012
CCTAAAGG | -0.154
AGCAGGTC | 0.0873
AGACTGCA | -0.292
AACAGGAA | -0.241
CATCTGTC | -0.0784
CCAGTCCA | -0.15
CCCAAATC | -0.0854
CCACTACC | 0.073
CCTCCGAC | 0.28
GGAGCGCC | 0.0877
CTAACACA | -0.0972
CCCGAGCC | 0.366
ATGTTAGA | -0.336
CTATTATA | -0.0331

Sequence | PBM E-score
AAGCACTA | -0.167
CACTAGGA | -0.221
TATTGGCA | -0.102
GCTCCTTA | 0.0409
TCGCCCCA | -0.255
AACTACGA | -0.136
AAGACGGA | 0.0717
TATCTGAA | -0.107
CTCGACCC | -0.0169
GAAGAGAA | -0.00656
ATAGGAGC | 0.0199
AATTTCGA | -0.0634
GTAGATTA | 0.145
CTAGACAC | -0.138
CCTAATTC | -0.0554
ATAGGCTA | -0.167
AAAAACCG | 0.24
TGCAGGAA | -0.097
CGGTGCAG | 0.102
ACCTCTAC | -0.049
GGACCCCA | -0.0871
GAGAGGTA | -0.207
CAACTTTC | 0.00732
CTCTTTGC | -0.193
AACAGTTC | -0.0474

Sequence | PBM E-score
GTTAACAA | 0.0703
GTCGCACA | -0.13
GCGCCAAA | 0.139
CCTCGGAC | 0.39
ACTCGACG | -0.0125
GCCTCCGC | 0.135
CCGATTAA | 0.298
GCCGTCCC | 0.182
AATACTTC | -0.104
CGTAACCC | 0.156
ACATCGTC | -0.0858
CATTGTCC | 0.185
AGATGCCT | -0.314
CAAATCAC | -0.188
AGTAAACG | 0.00897
CGATGAAA | -0.0218
CATATGGG | 0.0423
CACTAACC | 0.0126
GACACCCC | -0.0457
AGGACAGC | -0.0413
CGAAGTGA | -0.102
ACAAGTGA | -0.141
GCGTACTA | -0.116
ATGAGCAA | -0.029
AAGACGAT | -0.233

Sequence | PBM E-score
AGCGCGCC | 0.102
AGGGACCA | -0.257
GCTCCGCC | 0.238
ACTGTTAG | -0.263
AGTCTACC | -0.0192
ACGTTCGG | 0.289
GCACGAGC | -0.188
GCATAGAC | -0.19
AGAAACAT | -0.103
CTCAACTC | -0.0424
AGAAACTC | -0.00685
CCGGTCAC | 0.173
CCAACGGA | 0.266
AACGATCT | -0.146
ATACAGGA | 0.0664
GCTACTCA | -0.144
AGCGCACT | -0.08
ACCATCGG | 0.114
ACCGCGTA | 0.193
GGAGCCCC | -0.0916
CAAAGAGC | -0.176
CTTTTCAA | -0.239
ATTCAGCA | -0.238
CGCCGAGC | 0.364
CCTTGTGC | -0.214

Sequence | PBM E-score
GAGGTTAC | 0.0291
TGCCCCAA | -0.176
CGTAGACA | -0.0803
GAAAATAC | 0.105
AAATCATG | -0.195
CCGTAAAG | 0.29
GGCGCCCA | -0.0481
CTGGTGGA | -0.17
GGGGGAAA | 0.172
CTAAATGC | 0.137
AAAGGGAA | -0.111
AACGAATG | -0.0933
CAGTATAC | 0.06
CAAATACG | -0.203
CGGGGTTC | 0.211
AGGTTGCA | -0.0972
ATCCGAGG | 0.39
GATGGTTA | -0.0614
CAGACAAG | -0.109
AAATCGAA | -0.0885
CCAGGAGG | -0.106
CAGGCCAG | -0.152
CAACAGAA | -0.227
ATTAGAAG | -0.0841
AATCGATG | -0.153

Sequence | PBM E-score
AAAGGTAC | -0.123
TCCCCCGA | 0.393
CATGTCAC | -0.14
ATACTGAG | -0.143
ATGCGAAG | -0.0416
CCAAAATA | -0.0289
AACATGCC | 0.049
CCGCTACA | 0.265
ATTACCAA | -0.0677
GCAAGTCC | 0.0571
CTCGGGCA | 0.321
CTTAGTGA | -0.0694
AGACCATA | 0.0105
CGAGCCGA | 0.191
ATGACTCC | 0.0346
AAGGGCCG | 0.23
GGTACCCA | -0.168
AGAAACCC | 0.0915
TAATGTAA | -0.129
AGCAGCCA | -0.153
GACTTGAA | -0.00348
CCCTGAAG | -0.166
GCTTACAA | -0.179
AGCCTCGA | -0.329
AAAGGGAT | -0.336

Sequence | PBM E-score
AGAAAGCC | -0.0457
CGTTCTAC | -0.0529
ACCCGCGG | 0.33
CTCTCCTC | -0.166
CAAGAAAA | -0.0212
CAATGGAG | -0.188
TACCCGCA | 0.215
AGTCACCG | 0.125
CGGTGGAC | 0.159
CCTGGAGA | -0.237
GACATGGA | -0.0347
GATCGATC | -0.0786
CACTCGAG | -0.162
GATGTGAC | 0.133
CCTCCTCC | -0.147
CAACTACA | -0.12
CCCTGGGA | -0.115
GCCAGCCA | -0.0457
ATGTACCA | -0.0474
GTGACCTA | -0.188
AAATCCGA | 0.457
CGTGGTAG | -0.0899
CGCTGATC | 0.252
CCTTGTAC | -0.239
CCCCATAC | 0.0502

Sequence | PBM E-score
AGCTCAGG | -0.184
AGTTTTGG | -0.138
GGAACCAC | 0.0946
CATCCAGG | -0.183
ATATACTC | 0.0148
CACTATAA | -0.238
AAGCCGGC | 0.399
AGCGTATA | -0.0432
CCAAGGTC | -0.0382
GCGGTCTA | 0.0807
ACGCAGCT | -0.134
AGCAATTG | -0.033
ATCAAAAT | -0.25
GGTAGGAA | -0.121
AACGTTCA | -0.345
AGGGCATC | -0.311
CATGCGTA | -0.018
CCAAGAAA | -0.108
TGCACGCA | -0.106
AATACTAA | 0.024
ATCTGATC | -0.0276
AAACAGAC | -0.0457
GGTGAATA | 0.0285
ACGGACTA | 0.237
CCGTCGCC | 0.175

Sequence | PBM E-score
CGCTTAAG | 0.0296
TAACCGAA | 0.287
CGCAAAAG | -0.00606
TATTGCAA | 0.127
CGTACCTA | -0.104
GGAAGCAC | 0.00432
AGGGGAAT | 0.0163
CGACTCAC | -0.0909
CATATCCC | 0.109
CTAGAGAA | -0.207
CTTAGAGA | -0.183
TACCAGGA | 0.191
AACCTCAG | -0.0137
AAGCAAGG | -0.0634
ATGTAGCA | 0.0146
TAAAGTCA | -0.1
CAAAAGAC | -0.272
TTAGTGAA | -0.0313
ACTATATG | -0.236
AGAATCGG | 0.282
CAAGGCCC | -0.0324
GAGGATGC | -0.0739
GATGCCCA | -0.113
GCATATAA | 0.0302
CTCGCTCA | -0.028

Sequence | PBM E-score
CTGCCTTA | -0.208
ATCGGATA | 0.404
CACATTGC | -0.126
CACCCTAC | -0.27
CTGGCGCC | 0.0833
CGTGATCC | -0.0273
CTGAGCTC | 0.00147
CGGGGAGA | 0.11
CCCTAAAG | -0.0534
ATACGTGG | -0.184
GGTTTGAC | 0.153
CGTAGAAG | -0.0489
TAAATCCA | 0.071
CTTCATTC | -0.153
ACTACGAC | -0.078
ATATCTGG | 0.12
CTCCGCAG | 0.216
AATAAATC | 0.102
CCTAATCC | 0.00876
AAAAGGCG | -0.102
GATAAGGC | -0.00984
GAGTTGAA | 0.0428
GTCCCCTA | -0.196
CTTCCCGC | 0.0523
CATACGAA | -0.161

Sequence | PBM E-score
AGTGAACT | -0.0204
AGGGCCCA | -0.06
ACCCATCA | -0.195
AACTGGCT | -0.279
CGAAGGCC | 0.191
AGAGCGGG | 0.0695
CAGAGCAC | -0.0773
GGGGGCAC | -0.178
GATCTGGC | 0.104
ATCGGTGG | 0.215
ATCCGATG | 0.277
ACTAAAGG | -0.181
ATTCACAA | 0.0356
CCCCTTCC | -0.099
CGCACGCG | 0.0664
GAATGGGC | 0.0082
AGGTAGCA | -0.183
AGCAATAT | -0.105
AGAGTCAA | -0.174
GGTAATAA | 0.294
CTAATTAC | 0.0415
ACATGCTA | -0.182
CGAAGCCG | 0.238
CATGGGAA | -0.0406
ATGTACGG | 0.0736

Sequence | PBM E-score
CTTGTGGA | -0.273
CGCGTTTA | 0.253
AAGGAGAC | -0.294
ACCATAGG | -0.281
CGAAGTCG | 0.0997
GAGTTAGA | 0.0347
AATAAAAA | -0.00889
GATGGTAA | -0.192
CGACGTCG | 0.0423
GACAGAGA | -0.183
GATTATCA | 0.0127
AGTTGGCG | 0.0317
GGCTTGGA | -0.221
CCGATGCG | 0.316
CGGTACGA | 0.207
ACCCATTA | 0.0564
GCGTATCC | -0.0679
CAAGTGTG | -0.128
AAGGGGCT | -0.166
CCCACGCG | 0.101
CGAACACG | 0.09
GTGCTTGA | -0.247
GGCGGACA | 0.264
ACTCCCCG | 0.283
AATTGCCG | 0.257

Sequence | PBM E-score
GCCAGTTA | -0.14
AGTCGTAT | -0.123
CGACCCTA | 0.00653
CTTAAATA | -0.104
GGTGACCA | -0.222
GGAGACCA | 0.156
CTGCGTGC | -0.0143
CCCTGCTC | -0.203
CTCTAGGC | -0.173
CCGGACGG | 0.444
CACTGATC | -0.255
CGCCCTTA | 0.0404
CCTGAAAC | 0.0482
CTTTACCC | -0.0945
CGGCATGA | 0.24
AGGGTGAA | -0.0664
CATATTCA | -0.116
ATACTGTA | -0.0332
CATTTGCC | -0.0698
